Measured values from PubChem BioAssay AID504339 (National Center for Advancing Translational Sciences (NCATS), 2011).
Screen size: about 390,000 compounds; about 17,000 (4.4%) were called active. Inconclusive means that the source gave no clear call. Such entries were picked first, then a sample of the others. Calls follow the shape of the dose curve; as a rule, active = well fitted inhibition curve with a large enough effect; inconclusive = small, poorly fitted or top-dose-only effect; inactive = no such curve, though single readings can be large or run the other way. Potencies beside an inconclusive call are fits to weak or partial responses and may not hold up.

Each compound was assayed against Lysine-specific demethylase 4A (Homo sapiens) (UniProt O75164) (assay: qHTS Assay for Inhibitors of JMJD2A-Tudor Domain). Settings: AlphaScreen JMJD2A-Tudor / H3K4me3 peptide binding; activity change, negative = inhibition: at 114 µM (top of the series).
Sequence of UniProt O75164 (O75164 whole entry, looked up, the tested form may be a part): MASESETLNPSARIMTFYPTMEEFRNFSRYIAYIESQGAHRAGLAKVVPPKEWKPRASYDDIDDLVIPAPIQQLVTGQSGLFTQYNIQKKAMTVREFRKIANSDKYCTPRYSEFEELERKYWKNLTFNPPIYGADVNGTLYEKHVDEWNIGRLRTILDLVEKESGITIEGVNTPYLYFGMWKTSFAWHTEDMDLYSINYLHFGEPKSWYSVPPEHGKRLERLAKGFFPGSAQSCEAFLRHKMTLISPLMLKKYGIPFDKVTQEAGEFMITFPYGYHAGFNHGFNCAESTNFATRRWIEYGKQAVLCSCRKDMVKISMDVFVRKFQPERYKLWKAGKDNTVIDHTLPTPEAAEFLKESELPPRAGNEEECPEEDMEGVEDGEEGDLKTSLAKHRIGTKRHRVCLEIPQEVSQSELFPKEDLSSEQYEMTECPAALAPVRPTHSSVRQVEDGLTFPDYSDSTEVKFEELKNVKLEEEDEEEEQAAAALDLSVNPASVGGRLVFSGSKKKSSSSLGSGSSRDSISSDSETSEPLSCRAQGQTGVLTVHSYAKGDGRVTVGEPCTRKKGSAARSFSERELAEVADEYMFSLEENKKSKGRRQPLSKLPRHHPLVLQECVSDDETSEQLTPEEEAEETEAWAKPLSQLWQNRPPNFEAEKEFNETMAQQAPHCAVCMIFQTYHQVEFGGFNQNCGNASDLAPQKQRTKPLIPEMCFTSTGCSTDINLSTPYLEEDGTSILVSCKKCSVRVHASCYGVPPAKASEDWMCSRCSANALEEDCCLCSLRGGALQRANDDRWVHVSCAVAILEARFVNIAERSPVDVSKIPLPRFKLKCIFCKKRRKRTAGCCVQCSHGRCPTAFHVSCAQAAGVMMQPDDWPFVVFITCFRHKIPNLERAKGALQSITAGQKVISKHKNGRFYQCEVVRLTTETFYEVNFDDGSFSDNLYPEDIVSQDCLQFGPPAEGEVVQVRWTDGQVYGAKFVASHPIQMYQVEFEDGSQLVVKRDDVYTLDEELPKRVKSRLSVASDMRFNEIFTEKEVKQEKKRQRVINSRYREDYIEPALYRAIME
% is scaled to controls: 0 for no effect and ±100 for the full control effect; potency is read from the fitted curve at half-maximal effect; tags tell the direction and shape of the fitted curve.
Also: nearly all actives have a fitted effect of over 50% in size.

Which “activity change, negative = inhibition” value does the source give for `O=C(NCC1CCCO1)c1nn2c(C(F)(F)F)cc(-c3ccc(Br)o3)nc2c1Br` (stereo not given) here?
The value was inactive: -4.9%.

For `COc1cccc(CN2CCN(C(=O)c3cccc4ccccc34)CC2)c1OC`, which Potency is on record?
The Potency was active: 3.98 µM.

For `Clc1cncc(Cl)c1NNc1c2ccccc2nc2ccccc12`, which Potency is on record?
Its Potency is inconclusive: 3.55 µM [inhibitor, full curve, poor fit].

Which Potency does the source give for `O=S(=O)(Nc1ccc2c(c1)nc1n2CCN(Cc2ccccc2)C1)c1ccc(F)cc1` here?
Its Potency is active: 89.1 µM.

With `CC1(C)Cc2c(cnn2-c2cccc(F)c2)C(NC(=O)CCN2CCCC2=O)C1` (stereo not given) as the compound, how does the “activity change, negative = inhibition” value read?
The value was inactive: 0.694%.

`Cc1cc([N+](=O)[O-])ccc1N` was tested. Which “activity change, negative = inhibition” value did it give?
Its value is inactive: -13.7%.

For `COc1ccc(CNC(=O)C(=O)NCC2CCCO2)cc1` (stereo not given), which Potency is on record?
The Potency was inconclusive: 3.16 µM [inhibitor, single point].

`Nc1ccc(CSc2ccc(Cl)cc2)cc1` was tested. Which “activity change, negative = inhibition” value did it give?
The value was inactive: -7.64%.

How did the Potency turn out when `Cc1ccccc1OCC(=O)OC(C)CN1CCN(C)CC1` (stereo not given) was run?
The Potency was inconclusive: 50.1 µM [inhibitor, partial curve].

How did the Potency turn out when `O=C(CSc1ccc2ccccc2c1)N1CCN(c2ccc(O)cc2)CC1` was run?
The Potency was active: 50.1 µM.

`CCOc1ccccc1C=C1SC(=S)N(CC)C1=O` was tested. Which Potency did it give?
Its Potency is inconclusive: 35.5 µM [inhibitor, partial curve].

How did the Potency turn out when `CCOC(=O)c1c(-c2ccc(C)cc2)csc1/N=C/N(C)C` was run?
The Potency was inconclusive: 14.1 µM [inhibitor, full curve].

`COc1ccc2[nH]c(C)c(CCN(Cc3cccs3)C(=S)Nc3ccccc3)c2c1` was tested. Which Potency did it give?
The Potency was inconclusive: 50.1 µM [inhibitor, partial curve].

With `NC(=O)C1(N2CCCCC2)CCN(c2nc(-c3ccccc3)cs2)CC1` as the compound, how does the Potency read?
The Potency was inconclusive: 79.4 µM [inhibitor, partial curve].

How did the Potency turn out when `OCCC1CCCCN1CC(O)COCc1ccc(Cl)cc1` (stereo not given) was run?
Its Potency is active: 22.4 µM.

With `O=C(Nc1ccc(F)cc1)Nc1nnc(Cc2ccccc2F)s1` as the compound, how does the Potency read?
The Potency was inconclusive: 39.8 µM [inhibitor, single point].

How did the “activity change, negative = inhibition” value turn out when `COc1cc2ccccc2cc1C(=O)Nc1cccc(-c2nc3cc(C)c(C)cc3o2)c1` was run?
The value was inactive: -15.4%.

`COC(=O)CCCC1=CC2=C(c3ccccc3)C(=O)C(C)(OC(=O)C3CCCC3)C(=O)C2=CN1c1ccccc1` (stereo not given) was tested. Which Potency did it give?
Its Potency is inconclusive: 56.2 µM [inhibitor, partial curve].

With `C=C(C)C(=O)NC1=NN(c2ccccc2)C(=O)C1` as the compound, how does the Potency read?
The Potency was inconclusive: 20 µM [inhibitor, single point].

`Cc1cc(C)c(NC(=O)C2CCN(c3nc4ccccc4n4cccc34)CC2)c(C)c1` was tested. Which Potency did it give?
The Potency was inconclusive: 44.7 µM [inhibitor, partial curve].

How did the “activity change, negative = inhibition” value turn out when `Cc1cccc(C(=O)NCC(c2ccco2)S(=O)(=O)c2cccs2)c1` (stereo not given) was run?
The value was inactive: -1.62%.

For `O=C(CCCc1c[nH]c2ccccc12)NCc1ccccc1C(F)(F)F`, which Potency is on record?
The Potency was inconclusive: 7.94 µM [inhibitor, full curve, poor fit].

How did the “activity change, negative = inhibition” value turn out when `CCOC(=O)C1CCCN(C(=O)CCC(=O)Nc2ccc3nc(N4CCOCC4)cc(C)c3c2)C1` (stereo not given) was run?
Its value is inactive: -7.64%.

For `CCC(Oc1ccccc1)C(=O)Nc1nnc(S(=O)(=O)N(CC)CC)s1` (stereo not given), which Potency is on record?
The Potency was inconclusive: 17.8 µM [inhibitor, full curve, poor fit].

For `c1ccc(-c2cnnc(-c3ccccn3)n2)cc1`, which Potency is on record?
Its Potency is active: 11.2 µM.

How did the Potency turn out when `COc1ccc(CN2CN(S(=O)(=O)c3ccccc3)c3nc4ccccc4nc32)cc1` was run?
The Potency was inconclusive: 10 µM [inhibitor, partial curve].

For `Cc1ccc(C)c(NC(=O)C(NCC(C)(C)N2CCOCC2)c2ccccc2)c1` (stereo not given), which Potency is on record?
The Potency was inconclusive: 39.8 µM [inhibitor, single point].

For `CCN(CC)CCNC(=O)c1ccc(NC(=O)/C=C/c2ccc3ccccc3n2)cc1`, which Potency is on record?
The Potency was inconclusive: 89.1 µM [inhibitor, partial curve, poor fit].

Which Potency does the source give for `Cc1ccc(NC(=O)CSc2nnc3ccc4ccccc4n23)cc1` here?
Its Potency is inconclusive: 31.6 µM [inhibitor, single point].

For `Cc1ccc(C(=O)C2=C(O)C(=O)N(Cc3ccco3)C2c2cccc(Cl)c2)o1` (stereo not given), which Potency is on record?
Its Potency is active: 25.1 µM.

With `C[C@H](NC(=O)C1CC(=O)N(c2ccc3c(c2)OCO3)C1)C(=O)NC1CCCC1` (stereo not given in full) as the compound, how does the Potency read?
The Potency was inconclusive: 17.8 µM [inhibitor, partial curve].

Which Potency does the source give for `COc1ccc(C2NN=C(c3c[nH]c4ccccc34)C2O)cc1` (stereo not given) here?
Its Potency is inconclusive: 56.2 µM [inhibitor, partial curve].

Which Potency does the source give for `COc1cccc(NC(=O)CSc2nn3c(=O)c(C)nnc3s2)c1` here?
The Potency was inconclusive: 100 µM [inhibitor, single point].

`O=C(Cc1ccc(S(=O)(=O)N2CCOCC2)s1)Nc1ccccc1N1CCOCC1` was tested. Which “activity change, negative = inhibition” value did it give?
Its value is inactive: -17.3%.

`CC1=NN(Cc2ccccc2)C(=O)/C1=C/c1ccc(N(C)C)cc1` was tested. Which Potency did it give?
Its Potency is inconclusive: 17.8 µM [inhibitor, partial curve].

For `COc1ccc(/C(O)=C2/C(=O)C(=O)N(c3ccccn3)C2c2cccc(Cl)c2)cc1` (stereo not given), which “activity change, negative = inhibition” value is on record?
Its value is inactive: -30.8%.

Which Potency does the source give for `O=C(O)c1cc(O)c2c(c1)[C@H]([C@H]1c3cc(C(=O)O)cc(O)c3C(=O)c3c(O[C@@H]4O[C@H](CO)[C@@H](O)[C@H](O)[C@H]4O)cccc31)c1cccc(OC3O[C@H](CO)[C@@H](O)[C@H](O)[C@H]3O)c1C2=O` (stereo not given in full) here?
Its Potency is active: 0.316 µM.

With `Cc1cccc(Cn2c(=O)n3nc(-c4ccccc4)nc3c3ccccc32)c1` as the compound, how does the “activity change, negative = inhibition” value read?
Its value is inactive: 8.53%.

With `CN(CC(=O)Nc1ccc(F)cc1)c1ccc(S(=O)(=O)N2CCCCC2)cc1[N+](=O)[O-]` as the compound, how does the Potency read?
Its Potency is inconclusive: 35.5 µM [inhibitor, single point].

`COc1ccccc1Nc1nc(-c2ccccc2F)nc2ccccc12` was tested. Which “activity change, negative = inhibition” value did it give?
The value was inactive: 120%.

How did the Potency turn out when `CCN1CCCC(OC(=O)c2cc(-c3ccc(C)cc3)nc3ccccc23)C1` (stereo not given) was run?
Its Potency is active: 17.8 µM.

With `CCCCN1CC(=O)N2[C@H]3c4cc(Br)ccc4OC[C@@H]3[C@H](C(=O)OCC)[C@]2(C)C1=O` as the compound, how does the “activity change, negative = inhibition” value read?
Its value is inactive: -9.66%.

For `Cc1ccc(N2C(N)=C(C#N)C(c3cccs3)C3=C2CC(C)(C)CC3=O)cc1` (stereo not given), which Potency is on record?
The Potency was inconclusive: 56.2 µM [inhibitor, partial curve].

Which Potency does the source give for `CCOc1ccccc1N1CCN(C(=O)/C=C/c2cccc([N+](=O)[O-])c2)CC1` here?
The Potency was inconclusive: 50.1 µM [inhibitor, partial curve].

With `CN(C(=S)Nc1cccnc1)c1ccc(O)cc1` as the compound, how does the Potency read?
Its Potency is inconclusive: 70.8 µM [inhibitor, single point].

How did the Potency turn out when `Cc1[nH]c2ccccc2c1SCCNC(=O)c1ccc(Br)o1` was run?
Its Potency is inconclusive: 56.2 µM [inhibitor, partial curve].

Which “activity change, negative = inhibition” value does the source give for `CC(=O)Nc1nc(C)c(CCC2OCCO2)c(=O)[nH]1` here?
The value was inactive: -2.82%.

`COc1ccc(N(C(=O)COc2ccc(C)cc2)S(=O)(=O)c2ccc(C)cc2)cc1` was tested. Which “activity change, negative = inhibition” value did it give?
The value was inactive: 2.97%.

Which Potency does the source give for `COc1ccc(-c2cc(C(=O)Nc3cccc(O)c3)on2)cc1OC` here?
Its Potency is inconclusive: 50.1 µM [inhibitor, partial curve].

`COc1cc(NC(=O)CNS(=O)(=O)c2cccs2)cc(OC)c1OC` was tested. Which “activity change, negative = inhibition” value did it give?
The value was inactive: -24.8%.

Which Potency does the source give for `O=C(NC(=S)Nc1ccc(Cl)c(C(=O)O)c1)c1ccc(OCc2ccccc2)cc1` here?
The Potency was inconclusive: 50.1 µM [inhibitor, partial curve].

With `CCCCC(CC)CNCc1cccn1CCN1CCOCC1` (stereo not given) as the compound, how does the Potency read?
The Potency was active: 28.2 µM.

With `Cc1ccc(/C([O-])=C(/C(=S)Nc2ccc(SC(F)F)cc2)[n+]2ccccc2)cc1[N+](=O)[O-]` as the compound, how does the Potency read?
Its Potency is inconclusive: 56.2 µM [inhibitor, partial curve].

For `CCN(CC)CCN(C(=O)c1ccco1)c1nc2cc(C)cc(C)c2s1`, which Potency is on record?
The Potency was inconclusive: 56.2 µM [inhibitor, partial curve].

With `Nc1c(-c2nc(-c3ccccc3)no2)nnn1CC(=O)Nc1cccc(F)c1` as the compound, how does the Potency read?
The Potency was inconclusive: 56.2 µM [inhibitor, partial curve, poor fit].

With `CCOc1cc(-c2ccc(OC(=O)c3ccc(C)cc3)c(OC)c2)cc(=O)c2c(C)oc(C)c12` as the compound, how does the Potency read?
Its Potency is inconclusive: 50.1 µM [inhibitor, partial curve].

How did the Potency turn out when `O=C(O)CN(CC(=O)O)CC(=O)O` was run?
Its Potency is active: 31.6 µM.

With `N/C(Cc1ccc(Cl)cc1Cl)=N\OC(=O)c1ccc(Br)o1` as the compound, how does the “activity change, negative = inhibition” value read?
Its value is inactive: 4.9%.

How did the Potency turn out when `N#Cc1c(-n2ncnc2-c2ccccc2C(F)(F)F)sc2c1CCCCC2` was run?
Its Potency is inconclusive: 11.2 µM [inhibitor, partial curve].

`S=C(NCc1cccnc1)Nc1ccc(Oc2ccc(Cl)cc2)cc1` was tested. Which Potency did it give?
Its Potency is inconclusive: 79.4 µM [inhibitor, single point].

Which Potency does the source give for `Cc1nc(N)sc1C(=O)Nc1ccccc1` here?
Its Potency is inconclusive: 56.2 µM [inhibitor, partial curve].

With `O=C(c1cc2ccccc2oc1=O)N1CCN(c2ccc(F)cc2)CC1` as the compound, how does the “activity change, negative = inhibition” value read?
The value was inactive: -9.28%.

`Cc1cc(C)c2c(CC(=O)Nc3ccc(S(=O)(=O)N4CCCCC4)cc3)coc2c1` was tested. Which Potency did it give?
Its Potency is inconclusive: 79.4 µM [inhibitor, partial curve].

Which Potency does the source give for `CC(C)CCn1nnnc1C(c1ccc(N(C)C)cc1)N1CCN(C(=O)c2ccco2)CC1` (stereo not given) here?
The Potency was inconclusive: 56.2 µM [inhibitor, partial curve].

`O=C1N/C(=C/c2ccco2)C(=O)N1Cc1ccccc1F` was tested. Which Potency did it give?
The Potency was inconclusive: 44.7 µM [inhibitor, partial curve].

Which “activity change, negative = inhibition” value does the source give for `Cc1ccc(CNC(=O)c2c(C)oc3nc(C)nc(N4CCOCC4)c23)cc1` here?
The value was inactive: -13.9%.

`CCCCn1c(=O)[nH]c(=O)c2c1nc(-c1cccc(OC)c1)n2C` was tested. Which Potency did it give?
Its Potency is inconclusive: 25.1 µM [inhibitor, full curve].

How did the “activity change, negative = inhibition” value turn out when `Cc1ccc(C(=O)N2CCN(C)CC2)cc1S(=O)(=O)N1CCCCCC1` was run?
Its value is inactive: -14.4%.

`c1ccc(-c2nc3ccccc3c3nc4ccccc4n23)cc1` was tested. Which Potency did it give?
Its Potency is inconclusive: 70.8 µM [inhibitor, partial curve].

How did the Potency turn out when `COc1ccc(/C=N/Nc2cc(C)nc3c(C)cccc23)cc1` was run?
Its Potency is inconclusive: 79.4 µM [inhibitor, partial curve].
